# In all, about 310,000 compounds went through this assay and about 14,000 (4.5%) showed an effect of 50% or more. Effects have a minus sign here. The list shows a part of the results.
# Biological target: human ether-à-go-go-related gene (hERG) potassium channel (human, UniProt Q12809)
# Assay: primary screen, population patch clamp on CHO cells stably expressing hERG
# 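Also: peak tail current of the secondary pulse compared with the same well before compound.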
# Sequence of human ether-à-go-go-related gene (hERG) potassium channel (Q12809 whole entry, looked up): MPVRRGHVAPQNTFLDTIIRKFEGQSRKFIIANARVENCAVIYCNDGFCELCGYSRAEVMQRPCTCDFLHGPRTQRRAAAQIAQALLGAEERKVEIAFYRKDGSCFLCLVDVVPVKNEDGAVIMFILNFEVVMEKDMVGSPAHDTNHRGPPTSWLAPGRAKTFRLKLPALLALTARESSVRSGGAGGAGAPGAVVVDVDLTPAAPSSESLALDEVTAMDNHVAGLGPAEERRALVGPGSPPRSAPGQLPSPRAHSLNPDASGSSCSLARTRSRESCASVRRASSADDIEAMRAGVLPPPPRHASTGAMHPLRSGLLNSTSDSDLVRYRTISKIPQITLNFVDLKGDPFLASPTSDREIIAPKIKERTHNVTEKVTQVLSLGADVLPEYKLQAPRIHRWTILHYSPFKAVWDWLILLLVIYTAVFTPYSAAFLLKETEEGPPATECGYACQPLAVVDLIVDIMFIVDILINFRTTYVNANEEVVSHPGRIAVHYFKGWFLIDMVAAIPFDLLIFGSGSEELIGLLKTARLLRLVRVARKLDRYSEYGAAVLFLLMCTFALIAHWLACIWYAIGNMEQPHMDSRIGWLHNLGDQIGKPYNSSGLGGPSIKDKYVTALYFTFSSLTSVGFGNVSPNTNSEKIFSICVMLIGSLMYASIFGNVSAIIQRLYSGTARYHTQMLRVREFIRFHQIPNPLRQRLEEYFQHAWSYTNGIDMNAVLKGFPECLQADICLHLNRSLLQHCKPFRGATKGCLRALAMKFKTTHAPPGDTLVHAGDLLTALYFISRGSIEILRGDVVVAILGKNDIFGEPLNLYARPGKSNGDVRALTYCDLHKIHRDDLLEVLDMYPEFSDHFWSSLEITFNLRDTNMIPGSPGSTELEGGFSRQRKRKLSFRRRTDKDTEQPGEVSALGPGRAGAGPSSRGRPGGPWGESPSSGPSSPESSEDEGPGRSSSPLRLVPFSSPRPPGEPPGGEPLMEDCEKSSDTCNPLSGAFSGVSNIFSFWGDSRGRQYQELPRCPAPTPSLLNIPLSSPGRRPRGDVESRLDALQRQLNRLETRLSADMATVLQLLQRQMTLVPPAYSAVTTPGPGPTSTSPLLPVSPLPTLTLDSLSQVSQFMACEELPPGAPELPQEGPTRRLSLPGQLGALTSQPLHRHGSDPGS
row,SMILES,"hERG current change (%, negative = inhibition) at 10uM"
1,COc1ccc(Cc2nnc(N=Nc3c(O)[nH]c4ccc(Br)cc34)[nH]c2=O)cc1,19.7%
2,CCn1cc(C(=O)N2CCc3ccccc32)c(=O)c2cc(S(=O)(=O)N3CC(C)CC(C)C3)ccc21 (stereo not drawn),-43.8%
3,COc1ccc(OC)c2c1sc(=NC(=O)C1CC1)n2C,-11.2%
4,CCOC(=O)c1ccc(NC(=S)N2CCCC2)cc1,43.3%
5,CC(=O)NS(=O)(=O)c1ccc(NC(=O)COc2ccc(C(=O)c3ccccc3)cc2)cc1,15.8%
6,COc1ccc(S(=O)(=O)N(C)c2ccc(C(=O)NCC3CCCO3)cc2)cc1 (stereo not drawn),2.76%
7,CC1CN(C(=S)NC2CCCC2)CC(C)O1 (stereo not drawn),13%
8,CCn1c2ccccc2c2cc(NC(=O)CN(C)CC(=O)Nc3ccc(N4CCOCC4)cc3)ccc21,10.5%
9,CCn1c(=O)c2cc(S(=O)(=O)NCc3ccccc3)ccc2n(CC)c1=O,4.11%
10,CCc1ccc(CN(C)CC(O)COc2cccc3ccccc23)cc1 (stereo not drawn),-25.2%
11,CCc1ccc(CNC(=O)C2CCCN(c3nnc(C)c4c(C)n(-c5ccccc5)nc34)C2)cc1 (stereo not drawn),-15.2%
12,O=C(NC1CCCC1)C(c1ccccn1)N(C(=O)c1csnn1)C1CCCC1 (stereo not drawn),2.32%
13,O=C(NCc1ccco1)C1CCCN(S(=O)(=O)c2cccc3cccnc23)C1 (stereo not drawn),0.148%
14,c1csc(CNc2ncnc3nc[nH]c23)c1,-2.79%
15,COc1ccccc1N1CCN(C(=O)c2ccc(CN3CCOCC3)cc2)CC1,16.7%
16,CCCCCNC(=O)c1ccc2c(=O)n(CC3CCCO3)c(=S)[nH]c2c1 (stereo not drawn),4.06%
17,CCCCCn1c(=O)[nH]c2cc(C(=O)N3CCN(c4ccc(C(C)=O)cc4)CC3)ccc2c1=O,-15.9%
18,COc1cc(C(=O)N(Cc2ccc(C)o2)C2CCS(=O)(=O)C2)cc(OC)c1OC (stereo not drawn),14.4%
19,Cn1c(N2CCOCC2)c(/C=N/O)c2ccccc21,7.51%
20,OCCOCCNc1ncnc2c1c(-c1ccccc1)cn2-c1ccccc1,-50.6%
21,Cc1ccc(S(=O)(=O)N2CCN(C(=O)COC(=O)/C=C/c3ccccc3F)CC2)c(C)c1,16.8%
22,COC(=O)[C@]1(CC(C)C)N[C@H](c2ccc(-c3ccc(OC)cc3)cc2)[C@@H]2C(=O)N(C)C(=O)[C@@H]21.O=C(O)C(F)(F)F,8.93%

row,SMILES,"hERG current change (%, negative = inhibition) at 10uM"
1,COc1ccc(N(CC(O)CN2CCCCC2)S(=O)(=O)c2ccc(C)cc2)cc1 (stereo not drawn),-78.6%
2,COc1ccccc1NC(=O)C(=O)NCC1CCCN1S(=O)(=O)c1cccs1 (stereo not drawn),-18.9%
3,COc1cc(NC(=O)COc2ccc(-n3cnnn3)cc2)c(OC)cc1Cl,-22%
4,Cc1ccc(S(=O)(=O)N2CCN(c3ccccc3)CC2)cc1C,6.82%
5,COCCNc1nc2c(c(=O)n(Cc3ccc(OC)cc3)c(=O)n2C)n1C,-4.98%
6,Oc1ccccc1-c1nnc(COc2ccccc2)o1,1.55%
7,Cc1ccc(CC(=O)Nc2ccc(S(=O)(=O)N3CCOCC3)cc2)cc1C,4.53%
8,COc1ccccc1C(=O)N1CCN(S(=O)(=O)Cc2ccccc2)CC1,0.496%
9,Cc1cc(C)n(C(=O)CNC(=O)c2ccco2)n1,11.9%
10,O=C1c2[nH]nc(-c3ccccc3O)c2C(c2cccc(O)c2)N1Cc1ccco1 (stereo not drawn),-3.29%
11,COc1cccc(-n2nnnc2SCC(=O)Nc2ccc3c(c2)OCCO3)c1,6.02%
12,O=C(NCCO)C(F)(F)C(F)(F)C(F)(F)OC(F)(C(=O)NCCO)C(F)(F)F (stereo not drawn),8.31%
13,Cc1ccc(-n2nc3c(c2NC(=O)c2ccccc2)CS(=O)(=O)C3)cc1C,-45.3%
14,Cc1ccc(Nc2nc(Cl)nc(NC3CCCCC3)n2)cc1,13.2%
15,Cn1c(SCc2nc(-c3ccc(Cl)cc3)no2)nnc1-c1cccs1,-1.95%
16,CCOc1cc(C2C3=C(CC(C)(C)CC3=O)N(CCCOC)C3=C2C(=O)CC(C)(C)C3)ccc1OC,-8.34%
17,Cc1ccc(OCCSc2cc(C)nc(N)n2)cc1,-8.47%
18,COc1ccc(S(=O)(=O)N(CC(=O)NC2CC2)c2ccc(C)cc2)cc1,-0.125%
19,CN(CCO)c1cc(Sc2nc3ccccc3s2)c2nonc2c1[N+](=O)[O-],23.7%
20,O=C(O)Cc1ccc(C(=O)c2cccs2)s1,11.8%
21,CCCC1(c2ccccc2)NC(=O)N(CC(=O)N(C)Cc2c(F)cccc2Cl)C1=O (stereo not drawn),-2.69%
22,Nc1nc2nc(-c3ccc(F)cc3)cc(C(F)(F)F)n2n1,3.62%

row,SMILES,"hERG current change (%, negative = inhibition) at 10uM"
1,Cc1cc(Nc2cc(Cl)nc(Sc3ccc(NC(=O)C4CC4)cc3)n2)n[nH]1,-1.43%
2,CCn1ncc(N2CCOCC2)c(Cl)c1=O,10.9%
3,COc1ccc(OC)c(NC(=O)CSc2nnc(-c3ccco3)n2-c2ccccc2)c1,-11%
4,O=C1NC(=O)/C(=C\c2ccccc2OCc2ccccc2)S1,36.7%
5,Cc1ccc(S(=O)(=O)Nc2ccccc2C(=O)N2CCCC2)cc1,0.25%
6,CC(C)OC(=O)CSc1nnc(-c2ccc(Cl)cc2)n1N,-2.07%
7,Cc1ccccc1NC(=O)Cc1nnc(SCC(=O)N2CCN(c3ccccc3)CC2)n1C,3.41%
8,CCN(CC)C(=O)c1ccc(COc2ccc(Cl)c(C)c2)o1,-9.32%
9,C=CCOc1ccccc1CNc1ccccc1C,-15.7%
10,CCOc1ccccc1NC(=O)Cn1nnc(C(=O)NCCc2ccc(OCC)c(OCC)c2)c1N,12.3%
11,CSCCC(NC(=O)c1ccccc1Cl)C(=O)N(C)Cc1cccs1 (stereo not drawn),5.81%
12,CCOc1ccc(NC(=O)C(CC(=O)O)Cc2ccc(C)cc2)cc1 (stereo not drawn),12.2%
13,COc1ccc(/C=C/c2nnc(NC(C)=O)s2)cc1,7.96%
14,O=C(N/N=C/c1cccnc1)c1ccc(O)cc1,13.4%
15,CCCN(CC(=O)Nc1ccccc1OC)C(=O)CN1C(=O)NC2(CCCCC2)C1=O,-0.388%
16,CCN(CC)c1ccc(N2C(=O)/C(=C/c3cccs3)SC2=S)cc1,11.7%
17,COc1cccc(CNC(=O)C2CCN(S(=O)(=O)c3ccc4c(c3)OCCO4)CC2)c1,12.7%
18,CCC(=O)Nc1nnc(S(=O)(=O)N(C)c2ccccc2)s1,26.3%
19,O=C(c1cnc2n(c1=O)CCS2)N(C1CCCCC1)C1CCCCC1,-7.58%
20,COc1ccc(C(=O)NN=C(Cc2ccccc2)Cc2ccccc2)cc1OC,4.5%
21,CCn1ncc(Br)c1C(=O)Nc1c(C)nn(Cc2c(F)c(F)c(F)c(F)c2F)c1C,7.03%
22,Cc1cc(C)cc(C(=O)N2CC(=O)Nc3ccccc32)c1,-17.3%

row,SMILES,"hERG current change (%, negative = inhibition) at 10uM"
1,Cc1cc(NC(NC(=O)c2ccco2)(C(F)(F)F)C(F)(F)F)no1,-6.53%
2,CC1CCc2[nH]c3ccc(C(=O)NCCCOC(C)C)cc3c2C1 (stereo not drawn),2.26%
3,COc1ccc(NC(=O)Nc2c(O)ccc3ccccc23)cc1,3.94%
4,O=C(c1cc(-c2ccc3c(c2)OCO3)on1)N1CCOCC1,6.17%
5,C=CCn1c(COc2ccccc2F)nnc1SCC(=O)Nc1cc2oc3ccccc3c2cc1OC,2.94%
6,N/C(CCS(=O)(=O)c1ccc(Cl)cc1)=N\OC(=O)c1ccc(Cl)cc1,3.44%
7,Cc1ccc(Nc2nc(NCCO)c3ccccc3n2)cc1C.Cl,-52.4%
8,CN1C(=O)NC(c2cccc(F)c2)C2=C1CC(C)(C)CC2=O (stereo not drawn),15.3%
9,COc1ccc2nc(SC)c(C#N)cc2c1,15.1%
10,Cc1ccc(NC(=O)Nc2cccc([N+](=O)[O-])c2)nc1,23.8%
11,CC(=O)c1cccc(NC(=O)COC(=O)c2cccs2)c1,17.2%
12,COc1ccc(/C=N/n2cncn2)cc1CSc1ccccn1,-14%
13,Cc1cccc(N(CC(=O)NC(C)(C)C)C(=O)CS(=O)CC(=O)Nc2ccc(F)cc2)c1 (stereo not drawn),27.5%
14,CCOc1cc(/C=C(/NC(C)=O)C(=O)O)cc(Cl)c1OCc1cccc(Br)c1,6.11%
15,CCOC(=O)[C@@H]1[C@H]2COc3ccccc3[C@H]2N2C(=O)N(c3ccc(Cl)cc3)C(=O)[C@]12C,2.73%
16,O=C(Nc1nnc(SCC(=O)N2CCCc3ccccc32)s1)c1ccccc1,0.924%
17,CN(C)CCOC(=O)c1ccc2c(c1)S(=O)(=O)c1ccccc1C2=O.Cl,-6.3%
18,CC1(C)OC(=O)C(=CNC(CCC(N)=O)C(=O)O)C(=O)O1 (stereo not drawn),7.62%
19,CCCn1c2c(c(O)c(C(=O)Nc3nc4ccccc4s3)c1=O)CCCC2,43.8%
20,COc1ccc(-c2nc(N)n[nH]2)cc1OC,18.9%
21,c1ccc(C2(CN3CCNC[C@H]3Cc3cccc4ccccc34)CC2)cc1,-8.52%

# Source: publication PMC4336329 (PLoS ONE, 2015)
